Experimental data as given in publication PMC4336329 (PLoS ONE, 2015).
Hit rate of the full screen: of about 310,000 compounds, about 2,200 (0.71%) showed an effect of 50% or more. The effect is printed as a negative number. This is one part of the list.

target: human ether-à-go-go-related gene (hERG) potassium channel (human, UniProt Q12809); experiment: primary screen, population patch clamp on CHO cells stably expressing hERG
Sequence (Q12809 whole entry, looked up): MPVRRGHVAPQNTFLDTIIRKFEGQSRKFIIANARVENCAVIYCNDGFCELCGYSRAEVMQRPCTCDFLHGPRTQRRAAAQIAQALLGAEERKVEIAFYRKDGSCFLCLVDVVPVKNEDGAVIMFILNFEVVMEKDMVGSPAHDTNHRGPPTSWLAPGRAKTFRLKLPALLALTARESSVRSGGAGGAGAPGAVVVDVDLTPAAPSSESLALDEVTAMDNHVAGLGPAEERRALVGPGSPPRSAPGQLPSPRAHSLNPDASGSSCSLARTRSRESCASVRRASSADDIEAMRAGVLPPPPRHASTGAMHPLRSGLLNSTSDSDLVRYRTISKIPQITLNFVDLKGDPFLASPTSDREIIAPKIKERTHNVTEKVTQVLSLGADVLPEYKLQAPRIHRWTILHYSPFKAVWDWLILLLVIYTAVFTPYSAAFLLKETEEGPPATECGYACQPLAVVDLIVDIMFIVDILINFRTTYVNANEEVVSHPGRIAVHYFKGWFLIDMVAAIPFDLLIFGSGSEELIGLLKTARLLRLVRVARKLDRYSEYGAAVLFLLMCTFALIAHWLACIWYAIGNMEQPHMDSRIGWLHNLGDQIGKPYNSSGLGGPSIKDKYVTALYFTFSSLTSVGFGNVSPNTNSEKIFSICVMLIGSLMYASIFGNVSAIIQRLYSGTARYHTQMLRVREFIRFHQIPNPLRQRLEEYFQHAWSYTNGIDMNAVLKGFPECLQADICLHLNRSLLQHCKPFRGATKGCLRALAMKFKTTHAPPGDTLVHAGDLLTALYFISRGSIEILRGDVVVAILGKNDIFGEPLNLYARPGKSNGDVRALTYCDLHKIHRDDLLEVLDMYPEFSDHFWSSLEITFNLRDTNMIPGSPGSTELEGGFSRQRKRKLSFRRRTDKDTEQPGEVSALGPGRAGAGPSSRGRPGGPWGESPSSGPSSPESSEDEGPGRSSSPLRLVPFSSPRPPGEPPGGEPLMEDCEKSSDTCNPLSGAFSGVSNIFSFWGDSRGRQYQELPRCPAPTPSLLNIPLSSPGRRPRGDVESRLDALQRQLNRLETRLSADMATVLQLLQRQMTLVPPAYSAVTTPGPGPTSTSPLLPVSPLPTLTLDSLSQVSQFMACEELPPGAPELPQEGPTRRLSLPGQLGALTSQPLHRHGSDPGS

Row | SMILES | hERG current change (%, negative = inhibition) at 1uM
1 | CC(C)CN(C(=O)COC(=O)c1cnc(Cl)c(Cl)c1)c1c(N)n(Cc2ccccc2)c(=O)[nH]c1=O | 8.68%
2 | COC(=O)C(NC(=O)c1ccc(Cl)cc1)(Nc1nc(C)cs1)C(F)(F)F (stereo not shown) | 15.6%
3 | COc1ccc(-c2csc(Nc3ccc(C)cn3)n2)cc1OC | 0.435%
4 | O=C(CN(Cc1ccco1)C(=O)CNS(=O)(=O)c1ccc(F)cc1)NCCc1ccccc1 | -3.94%
5 | CCN(CCn1cccn1)Cc1cn[nH]c1-c1ccc(OC)cc1F | -5.87%
6 | CN(CC(=O)Nc1ccc(S(N)(=O)=O)cc1)Cc1ccccc1F | 7.82%
7 | CSCCC(NC(=O)c1ccco1)C(=O)NCC1CCCCC1 (stereo not shown) | 10.5%
8 | COc1ccc(NC(=O)CN(C)CC(=O)Nc2sc3c(c2C(N)=O)CCC3)cc1 | -21.7%
9 | CCCOc1ccc(OCCSc2ncccn2)cc1 | 7.67%
10 | Cc1ccc(CNC(=O)C2CC(c3ccccc3[N+](=O)[O-])=NO2)cc1 (stereo not shown) | -15.3%
11 | CCOc1ccc(-c2cn(-c3cccc(SC)c3)c(=O)[nH]2)cc1 | 2.84%
12 | O=C(CSc1nc2[nH]c(=O)[nH]c(=O)c2s1)Nc1cccc(F)c1 | 15.4%
13 | CC(=O)C1=C(C)NC2=C(C(=O)CC(C)(C)C2)C1C (stereo not shown) | 29.4%
14 | COc1cccc(NC(=O)c2ccc(S(=O)(=O)N(C)C)cc2)c1 | 0.787%
15 | CCOC(=O)C1=C(CSc2nc(-c3ccccc3)ccc2C#N)OC(N)=C(C#N)C1c1cccnc1 (stereo not shown) | -6.76%
16 | O=C(NC1CCCC1)C(c1ccccc1)N(Cc1cccnc1)C(=O)Cc1cccs1 (stereo not shown) | 18.1%
17 | Cc1c(CC(=O)NCC(=O)N[C@H](Cc2ccccc2)C(=O)O)c(=O)oc2cc(O)ccc12 | 5.36%
18 | O=C(O)CN1CCCC1=Nc1ccccc1 | 5.22%
19 | CC(=O)N(C)c1ccc(NC(=S)NCC(C)C)cc1 | 8.74%
20 | CCOC(=O)N1CCN(C(=O)c2cc(OC)c(OC)c(OC)c2)CC1 | 7.73%
21 | Cc1ccccc1C(=O)Nc1cccc(NC(=O)c2ccccc2[N+](=O)[O-])c1 | 8.9%
22 | COc1ccc(S(=O)(=O)N2CC(O)CC2C(=O)OCc2nc3sc(C)c(C)c3c(=O)[nH]2)cc1 (stereo not shown) | -2.46%

Row | SMILES | hERG current change (%, negative = inhibition) at 1uM
23 | Cc1cc(C(=O)COC(=O)c2cccnc2Cl)c(C)n1-c1c(C)n(C)n(-c2ccccc2)c1=O | 11.3%
24 | O=C1CCN(Cc2ccccc2)CCN1[C@H](CO)Cc1ccccc1 | 11.2%
25 | CC(NC(=O)C1CCC(C(=O)NC(C)c2ccccc2)CC1)c1ccccc1 (stereo not shown) | 16.3%
26 | CCOC(=O)c1c(NC(=O)C2COc3ccccc3O2)sc(C(C)=O)c1C (stereo not shown) | 7.08%
27 | O=C(Nc1ccc(S(=O)(=O)NCCc2ccccc2)cc1)c1ccco1 | -1.28%
28 | Cc1ccccc1Cn1c(=O)n(-c2ccccc2)c(=O)c2ccc(C(=O)NCc3ccco3)cc21 | 7.62%
29 | CC(C)(C)NS(=O)(=O)c1ccc(NC(=O)C(Sc2ccccc2)c2ccccc2)cc1 (stereo not shown) | 11.9%
30 | CCC(C)C1(CC)C(=O)NC(=O)N=C1N (stereo not shown) | 17.1%
31 | Cc1cccnc1NC(=S)NC(=O)/C=C/c1ccco1 | 4.31%
32 | CCC(C)[C@H]1COCCS(=O)(=O)N1Cc1ccc(Br)cc1 (stereo partly shown) | 3.17%
33 | CC1(C)CC(NC(=O)C2CCC(=O)N(C3CC3)C2)CC(C)(C)C1 (stereo not shown) | 16.2%
34 | CCN(CC(=O)Nc1c(F)cccc1F)C(=O)c1cc([N+](=O)[O-])ccc1N1CCCCC1 | 6.52%
35 | C=CCN(C(=O)c1cccc(C(F)(F)F)c1)C1(C(=O)Nc2ccccc2)CCN(C(C)C)CC1 | 7.11%
36 | COc1ccc(C(=O)c2c[nH]c(C(=O)NCCCN3CCOCC3)c2)cc1 | 8.18%
37 | CCCCN(Cc1ccco1)S(=O)(=O)c1ccc(-c2ccc(=O)[nH]n2)s1 | 0.212%
38 | COc1ccc(C(=O)Nc2ccc(N3CCN(C)CC3)cc2)cc1OC | 7.43%
39 | Cc1noc(C(=O)NCC2CCCO2)c1Cl (stereo not shown) | 15.9%
40 | COC(=O)c1[nH]nc(-c2ccccc2)c1-c1ccccc1 | -0.514%
41 | COc1ccc(S(=O)(=O)n2ccc(C)n2)cc1C | 5.41%
42 | COc1ccc(S(=O)(=O)NCC2CCCN(C(=O)C3CCCC3)C2)cc1 (stereo not shown) | 13.6%
43 | COC(=O)Cn1cnc2c(nnn2-c2ccc(C)cc2)c1=O | 8.54%
44 | COc1ccc(CN2C(=O)c3ccccc3C2C(=O)NCCc2ccccc2)c(OC)c1 (stereo not shown) | -5.73%

Row | SMILES | hERG current change (%, negative = inhibition) at 1uM
45 | Cc1cccc(N2CCN(Cc3ccc(Br)o3)CC2)c1C | 10.6%
46 | C(=N\n1cnnc1)/c1cn(Cc2ccccc2)c2ccccc12 | 15.4%
47 | Cc1cc(C)c2nc(C(F)(F)F)nc(N3CC(C)OC(C)C3)c2c1 (stereo not shown) | 13.9%
48 | Cc1ccc(S(=O)(=O)Nc2ccc(Cl)cn2)cc1C | 12.3%
49 | CC(C)CN(C(=O)c1ccc2c(c1)OCO2)C1CCS(=O)(=O)C1 (stereo not shown) | -7.81%
50 | O=C(OCCOc1cccc(Cl)c1)c1ccc(F)c(S(=O)(=O)N2CCOCC2)c1 | 9.78%
51 | Cc1ccc(C(=O)Nc2ccncc2)c(Cl)c1 | 12.9%
52 | COc1ccc(-c2[nH]ncc2-c2csc(C)n2)c(O)c1 | 13.7%
53 | CCOC(=O)/C(=N\Nc1ccc(Cl)cc1)c1csc(Nc2ccccc2)n1 | 1.88%
54 | O=C(CN1C(=O)NC2(CCCCC2)C1=O)NCCc1c[nH]c2ccccc12 | 12.8%
55 | CCOC(=O)Nc1sc2c(c1C#N)CCC(C)C2 (stereo not shown) | 9.92%
56 | CCCC(c1nnnn1Cc1ccc(OC)cc1)N1CCN(C(=O)c2ccco2)CC1 (stereo not shown) | -20.7%
57 | CCOc1ccc(C(=O)CCC(=O)Nc2ccccc2C)cc1 | 12.5%
58 | COC(=O)c1c(NC(=O)c2cccnc2)sc(C(=O)N(C)C)c1C | 14.9%
59 | Cc1cc(C(=O)N/N=C/c2ccco2)c2ccccc2n1 | 6.94%
60 | Cc1ccc(SCCNC(=S)Nc2ccccc2)cc1 | -0.346%
61 | COc1ccc(S(=O)(=O)N2CCN(CC(O)CN3CCOCC3)CC2)cc1 (stereo not shown) | 10.4%
62 | COc1cc(C(c2c(C)[nH][nH]c2=O)c2c(C)[nH][nH]c2=O)ccc1OC(=O)c1cccc([N+](=O)[O-])c1 | 14.1%
63 | O=C(OCN1C(=O)c2ccccc2C1=O)c1cccnc1SC(F)F | 1.31%
64 | CN1CCN(c2nc(-c3ccco3)cc(C(F)(F)F)n2)CC1 | -12.4%
65 | CC(NC(=O)CNC(=S)N(Cc1ccccc1)Cc1cccnc1)c1ccccc1 (stereo not shown) | 9.68%
66 | COc1cccc(C(=O)Nc2cccc(C(=O)NC3=NN(c4c(Cl)cc(Cl)cc4Cl)C(=O)C3)c2)c1 | 7.9%

Row | SMILES | hERG current change (%, negative = inhibition) at 1uM
67 | COc1ccc(OC)c(NC(=O)c2ccccc2OC(C)=O)c1 | 18.4%
68 | COc1ccccc1-c1ccc(SCc2ccccc2)nn1 | 4.58%
69 | Cc1ccc(O)c(NC(=O)c2cc(-c3ccco3)on2)c1 | 9.76%
70 | COc1ccc(NC(=O)/C(C#N)=C/c2ccc(-c3ccccc3C(=O)O)o2)cc1 | 10.1%
71 | O=C(Oc1ccc(-c2nnco2)cc1)c1ccco1 | 14.3%
72 | C=CCn1c(SCC(=O)Nc2ccc3c(c2)CCC3)nnc1-c1cccs1 | -83.5%
73 | Cc1ccc(NC(=O)C2CCCN2C(=O)OCc2ccccc2)cc1F (stereo not shown) | 14.9%
74 | OC(COC(c1ccccc1)c1ccccc1)CN1CCN(c2cccc(Cl)c2)CC1 (stereo not shown) | 12.2%
75 | C=CCn1c(SCC(=O)Nc2ncc(Cc3cc(C(F)(F)F)ccc3Cl)s2)nnc1-c1ccncc1 | 1.81%
76 | COc1cccc2cc(C(=O)N3CCN(C(=O)c4ccccc4)CC3)c(=O)oc12 | 7.85%
77 | Cc1nc2nc(-c3cccs3)[nH]c2cc1Br | 6.54%
78 | CC1(C)CC(=O)CC(C)(C)N1OC(=O)c1ccco1 | 6.77%
79 | CCOc1ccc(-c2c(C#N)c(N)nc3sc(C(=O)c4ccccc4)c(N)c23)cc1 | 6.4%
80 | Cc1cc(C(=O)NNS(=O)(=O)c2ccc(C(C)(C)C)cc2)nn1C(C)(C)C | 4.28%
81 | CCc1cc(C(=O)OC)c(NC(=O)CC2Sc3ccc(C(F)(F)F)cc3NC2=O)s1 (stereo not shown) | 12%
82 | COC(=O)c1cn(NC(=O)Cc2ccc(OC)c(OC)c2)c(=O)c2ccccc12 | 1.46%
83 | COc1cc([N+](=O)[O-])c2nccnc2c1 | 19.3%
84 | O=C(Nc1cccc(-c2cn3cccnc3n2)c1)c1ccc2c(c1)OCO2 | 4.37%
85 | CCc1nnc(NC(=O)c2nc3nc(C)cc(C)n3n2)s1 | 7.08%
86 | Cc1ccc2nc(-c3cccnc3)c(NC3CCCCC3)n2c1 | 5.38%
87 | CC(=O)C1=C(C)N(Cc2ccco2)C(=O)C1(NC(=O)C1CCCCC1)C(F)(F)F (stereo not shown) | 8.33%
88 | COc1ccc(-c2nc(CS(=O)(=O)CC(=O)NCCCN3CCN(C)CC3)c(C)o2)cc1 | -4.38%
